Measured values taken from PubChem BioAssay AID1508642 (National Center for Advancing Translational Sciences (NCATS), 2021).
Hit rate of the full screen: of about 43,000 compounds, about 200 (0.47%) were called active. Another 12% or so got no clear call; they are omitted. Calls follow the shape of the dose curve; as a rule, active = well fitted cell-killing curve with a large enough effect; inconclusive = small, poorly fitted or top-dose-only effect, or effect the other way; inactive = flat fitted curve, though single readings scatter. Some of the results follow.

Test: Cell viability qHTS assay in S16 Pmp22-F2sN cells; also: nearly all actives have a fitted effect of over 65% in size
Conditions: S16 Pmp22-F2sN Schwann cells viability, CellTiter-Glo, 24 h; series mostly up to 57.5 µM; activity change, negative = cytotoxicity: at the top concentration
Procedure, shortened: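 Viability was measured by CellTiter-Glo luminescence (15 min, room temperature). This followed 24 h at 37 °C of compound exposure (23 nL pin transfer) in S16 Pmp22-F2sN Schwann cells, 500-1,000 per well.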
% is scaled to controls: 0 for no effect and ±100 for the full control effect.

| SMILES | activity change, negative = cytotoxicity |
| --- | --- |
| Cn1c(=O)[nH]c2cc(-c3noc(-c4ccc(Br)cc4)n3)ccc21 | inactive: 3.08% |
| Cc1cccc(-c2nn3c(=O)cc(CN4CCN(C(=O)/C=C/c5ccccc5)CC4)nc3s2)c1 | inactive: -6.26% |
| CCC(C)c1ccc2oc(-c3ccc(NC(=O)c4cc5ccccc5o4)cc3)nc2c1 (stereo unspecified) | inactive: -3.18% |
| CCCC(=O)Nc1nnc(S(=O)(=O)N(C)Cc2ccc(Cl)cc2)s1 | inactive: -1.86% |
| CC(C)c1ccc(S(=O)(=O)c2nnn3c2nc(N2CCCC2)c2sccc23)cc1 | inactive: 6.07% |
| Cc1cccc(Cn2c(=O)n3nc(-c4ccccc4)nc3c3ccccc32)c1 | inactive: -16.3% |
| COc1cc2c(C(=O)Nc3cc(OC)c(OC)c(OC)c3)cn(C)c(=O)c2cc1OC | inactive: 3.15% |
| COc1ccc(-c2c(C#N)c(SCC(=O)Nc3ccccc3C)nc(C)c2C(=O)Nc2ccc(Cl)cc2)cc1 | inactive: 2.73% |
| Cc1cc(O)c(C(c2cccc(F)c2)N2CCN(c3ccccc3)CC2)c(=O)n1Cc1ccco1 (stereo unspecified) | inactive: -3.43% |
| COC(=O)c1c(NC(=O)CCCOc2cccc(C)c2)sc2c1CCC2 | inactive: -10.6% |
| Cc1ccc(C)c(CN2C(=O)c3ccccc3S(=O)(=O)c3ccc(C(=O)OCC4CCCO4)cc32)c1 (stereo unspecified) | inactive: 11.9% |
| COc1ccc(NC(=O)Cn2c(SCc3ccc(C)cc3)nc3cccnc32)cc1OC | inactive: -18.3% |
| O=C1Nc2ccccc2Oc2cc(Oc3ccccc3)ccc21 | inactive: -2.98% |
| COc1ccc(Cn2c(CCC(=O)NCc3ccc(Cl)cc3)nc3cccnc32)cc1 | inactive: 1.18% |
| CCOC(=O)COc1ccc(C2C(C(=O)OC)=C(C)NC3=C2C(=O)c2ccccc23)cc1Cl (stereo unspecified) | inactive: 1.37% |
| COc1cccc(CNC(=O)c2cnc3sc(N4CCCC4)nn3c2=O)c1OC | inactive: 11.9% |
| CCOC(=O)CC(NC(=O)CCc1c(C)nc2c(-c3ccccc3)c(C)nn2c1C)c1ccc(OC(C)C)cc1 (stereo unspecified) | inactive: 4.94% |
| CSc1ccc(CCNC(=O)NCc2noc3ccccc23)cc1 | inactive: -2.34% |
| Cc1cccc(NC(=O)Cn2cc(C(=O)C3CCCCC3)c3ccccc32)c1 | inactive: 0.229% |
| CCOC(=O)c1cc(S(=O)(=O)Nc2cc(OC)ccc2OC)[nH]n1 | inactive: 18.6% |
| Cc1ccc(C(=O)NCC(c2ccc3c(c2)OCO3)N2CCOCC2)cc1C (stereo unspecified) | inactive: -0.433% |

| SMILES | activity change, negative = cytotoxicity |
| --- | --- |
| COc1ccc(CNc2nc(-c3ccco3)nn2S(=O)(=O)c2ccc(Cl)cc2)cc1OC | inactive: 5.8% |
| O=C(CSc1cn(CC(=O)N2CCCC2)c2ccccc12)Nc1ccc(Cl)cc1 | inactive: -6.45% |
| CC(C)c1ccc(CN(C(=O)c2cc3ccccc3oc2=O)C2CCS(=O)(=O)C2)cc1 (stereo unspecified) | inactive: 7.4% |
| CCOCCn1ccc2c(OCC(=O)Nc3ccc(C(N)=O)cc3)cccc2c1=O | inactive: 9.9% |
| CCOC(=O)c1oc2ccc(S(=O)(=O)n3nc(-c4ccc(C)cc4)cc3N)cc2c1C | inactive: -11.9% |
| COc1ccc(NC(=O)C2CCN(S(=O)(=O)c3cccc(-c4noc(C)n4)c3)CC2)cc1OC | inactive: -3.61% |
| CCCc1nn2c(=O)cc(COC(=O)c3ccc(NC(=O)COc4ccc(F)cc4)cc3)nc2s1 | inactive: 9.48% |
| CN(C)c1ccc(CNC(=O)C2CCN(c3nc4ccccc4[nH]3)CC2)cc1 | inactive: 5.34% |
| Cc1cc(S(=O)(=O)N2CCN(Cc3noc(CCC(=O)N4CCCCC4)n3)CC2)ccc1F | inactive: -15.2% |
| COC(=O)c1cc2occc2n1Cc1nc(-c2ccccc2)oc1C | inactive: 3.02% |
| COc1ccc(C2NC(=O)N(C)C3=C2C(=O)N(c2ccc(Br)cc2)C3)cc1 (stereo unspecified) | inactive: -12.6% |
| COc1ccc(NC(=O)C2=CC(c3ccco3)=NS(=O)(=O)N2C)cc1 | inactive: -11.8% |
| CCCCCn1c(=O)[nH]c2cc(C(=O)Nc3ccc(F)c(F)c3)ccc2c1=O | inactive: -3.72% |
| Cc1cc(SCC(=O)NCc2ccc(Cl)cc2)nc(=O)[nH]1 | inactive: -6.96% |
| Cc1ccc(S(=O)(=O)N2CCC(C(=O)NCc3ccccc3Cl)CC2)cc1 | inactive: -8.56% |
| Cc1ccccc1C(=O)Nc1cccc(OCc2cc(=O)n3c(C)csc3n2)c1 | inactive: 0.936% |
| CCN1CCN(Cc2c(O)ccc3c(C)c(-c4ccc(OC)cc4)c(=O)oc23)CC1 | inactive: -9.51% |
| Cc1cccc(NC(=O)c2cc(S(=O)(=O)NCCc3ccccc3)ccc2F)c1C | inactive: 6.6% |
| Cc1ccc(C)c(NC(=O)CN2CCSc3ccc(S(=O)(=O)N4CCCC4)cc32)c1 | inactive: 18.3% |
| COc1ccccc1N1CCN(c2ncnc3c2nnn3C)CC1 | inactive: -7.06% |
| Cc1ccc(C)c(NC(=O)Cn2c(=O)n(Cc3cccs3)c(=O)c3cccnc32)c1 | inactive: 11.8% |

| SMILES | activity change, negative = cytotoxicity |
| --- | --- |
| CC(C)(C)OC(=O)N1CCC(c2c(C(=O)N3CCN(c4ncccn4)CC3)cnn2-c2ccc(F)cc2F)CC1 | inactive: 9.75% |
| COc1ccc(-c2cn3nc(N4CCC(C(=O)Nc5cc(Cl)ccc5OC)CC4)sc3n2)cc1 | inactive: 26.4% |
| CCc1ccc(CNC(=O)Cc2c(C(=O)O)c(C)cn2C)cc1 | inactive: 0.124% |
| CCc1nnc(SCc2nc(-c3ccccc3)oc2C)c2cc3sccc3n12 | inactive: -0.899% |
| Cc1ccc(Cl)cc1NC(=O)/C(C#N)=C\c1cn(Cc2ccc(F)cc2)c2ccccc12 | inactive: 2.19% |
| COc1ccc(C(=O)Nc2ccc(C(=O)OCc3cc(=O)n4nc(C(C)C)sc4n3)cc2)cc1 | inactive: 3.95% |
| Cc1ccccc1C(=O)Nc1ccc2nc(SCCOc3ccccc3)sc2c1 | inactive: 17.7% |
| CCOC(=O)c1c(S(=O)(=O)NCC(=O)NCc2ccc(C)cc2)c(C)n(C)c1C | inactive: -2.62% |
| Fc1ccc(CNc2cc(-c3ccccc3)nc3nncn23)cc1 | inactive: -22.1% |
| COc1ccc(OC)c(NC(=O)C(CCSC)NS(=O)(=O)c2cccs2)c1 (stereo unspecified) | inactive: 17.7% |
| COc1ccc(-c2nc(SCC(=O)N3CCC(C)CC3)n[nH]2)cc1 | inactive: -4.57% |
| Nc1c(C(=O)Nc2ccc(Cl)cc2F)sc2nc(-c3cccs3)ccc12 | inactive: 4.42% |
| O=C(NCc1ccc(F)cc1)c1cc2c(s1)-c1ccccc1SC2 | inactive: 24.9% |
| O=C(CCCn1c(=O)c2ccccc2n(CC(=O)Nc2ccc(F)cc2F)c1=O)NCc1ccccc1Cl | inactive: 13.4% |
| COc1cc2c(=O)n(CCC(=O)NCC3CCCO3)c(=O)n(CC(=O)Nc3c(C)cccc3C)c2cc1OC (stereo unspecified) | inactive: 7.32% |
| CCCCOC(=O)c1ccc(NC(=O)/C(C#N)=C/c2ccc(-c3ccccc3)o2)cc1 | inactive: 4.77% |
| COc1cccc(CCNc2ncnc3c2nnn3C)c1 | inactive: -10.8% |
| Cc1ccc(N(CC(=O)Nc2ccc(Br)c(C)c2)S(=O)(=O)c2cccs2)cc1 | inactive: -3.26% |
| CN(C)c1ccc(CNC(=O)C(Cc2ccccc2)NS(=O)(=O)c2ccc3c(c2)oc(=O)n3C)cc1 (stereo unspecified) | inactive: -0.201% |
